# Data published in the supplement of paper PMC8728848.
# The list shows a part of the results.
# B1: FliC (Pseudomonas aeruginosa), P72151 (protein)
# chain: MALTVNTNIASLNTQRNLNASSNDLNTSLQRLTTGYRINSAKDDAAGLQISNRLSNQISGLNVATRNANDGISLAQTAEGALQQSTNILQRIRDLALQSANGSNSDADRAALQKEVAAQQAELTRISDTTTFGGRKLLDGSFGTTSFQVGSNAYETIDISLQNASASAIGSYQVGSNGAGTVASVAGTATASGIASGTVNLVGGGQVKNIAIAAGDSAKAIAEKMDGAIPNLSARARTVFTADVSGVTGGSLNFDVTVGSNTVSLAGVTSTQDLADQLNSNSSKLGITASINDKGVLTITSATGENVKFGAQTGTATAGQVAVKVQGSDGKFEAAAKNVVAAGTAATTTIVTGYVQLNSPTAYSVSGTGTQASQVFGNASAAQKSSVASVDISTADGAQNAIAVVDNALAAIDAQRADLGAVQNRFKNTIDNLTNISENATNARSRIKDTDFAAETAALSKNQVLQQAGTAILAQANQLPQAVLSLLR
# Assays:
# Experiment in all cases: glycan array binding signal (z-score within array); higher = stronger binding
# Settings in all cases: glycan notation: IUPAC condensed, linker removed
# [1] = molecular target: Neu5Ac(a2-6)Gal(b1-4)GlcNAc(b1-2)Man(a1-3)[Man(a1-6)]Man(b1-4)GlcNAc(b1-4)GlcNAc
# Outline: (§1)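 Glycan array data came from 3228 arrays in the Consortium for Functional Glycomics database, and only arrays with an available protein sequence were kept. Glycan names were put into IUPAC-condensed notation, and columns mapping to the same glycan were averaged. The binding signal is a within-array Z-score, averaged across arrays of one protein sequence run at different concentrations or buffers and across linkers. A negative Z-score can be read as non-binding.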
# [2] = molecular target: Neu5Ac(a2-6)Gal(b1-4)GlcNAc(b1-2)Man(a1-3)[Neu5Ac(a2-3)Gal(b1-4)GlcNAc(b1-2)Man(a1-6)]Man(b1-4)GlcNAc(b1-4)GlcNAc
# Outline: as §1
# [3] = molecular target: Neu5Ac(a2-6)Gal(b1-4)GlcNAc(b1-2)Man(a1-3)[Neu5Ac(a2-6)Gal(b1-4)GlcNAc(b1-2)Man(a1-6)]Man(b1-4)GlcNAc(b1-4)GlcNAc
# Outline: as §1
# [4] = molecular target: Neu5Ac(a2-6)Gal(b1-4)GlcNAc(b1-2)Man(a1-3)[Neu5Ac(a2-6)Gal(b1-4)GlcNAc(b1-2)Man(a1-6)]Man(b1-4)GlcNAc(b1-4)[Fuc(a1-6)]GlcNAc
# Outline: as §1
# [5] = molecular target: Neu5Ac(a2-6)Gal(b1-4)GlcNAc(b1-2)Man(a1-6)Man(b1-4)GlcNAc(b1-4)GlcNAc
# Outline: as §1
# [6] = molecular target: Neu5Ac(a2-6)Gal(b1-4)GlcNAc(b1-2)Man(a1-6)[Gal(b1-4)GlcNAc(b1-2)Man(a1-3)]Man(b1-4)GlcNAc(b1-4)GlcNAc
# Outline: as §1
# [7] = molecular target: Neu5Ac(a2-6)Gal(b1-4)GlcNAc(b1-2)Man(a1-6)[GlcNAc(b1-2)Man(a1-3)]Man(b1-4)GlcNAc(b1-4)GlcNAc
# Outline: as §1
# [8] = molecular target: Neu5Ac(a2-6)Gal(b1-4)GlcNAc(b1-2)Man(a1-6)[Man(a1-3)]Man(b1-4)GlcNAc(b1-4)GlcNAc
# Outline: as §1
# [9] = molecular target: Neu5Ac(a2-6)Gal(b1-4)GlcNAc(b1-2)[Neu5Ac(a2-6)Gal(b1-4)GlcNAc(b1-4)]Man(a1-3)[GlcNAc(b1-4)][Neu5Ac(a2-6)Gal(b1-4)GlcNAc(b1-2)[Neu5Ac(a2-6)Gal(b1-4)GlcNAc(b1-6)]Man(a1-6)]Man(b1-4)GlcNAc(b1-4)GlcNAc
# Outline: as §1
# [10] = molecular target: Neu5Ac(a2-6)Gal(b1-4)GlcNAc(b1-2)[Neu5Ac(a2-6)Gal(b1-4)GlcNAc(b1-4)]Man(a1-3)[GlcNAc(b1-4)][Neu5Ac(a2-6)Gal(b1-4)GlcNAc(b1-4)Man(a1-6)]Man(b1-4)GlcNAc(b1-4)GlcNAc
# Outline: as §1
# [11] = molecular target: Neu5Ac(a2-6)Gal(b1-4)GlcNAc(b1-2)[Neu5Ac(a2-6)Gal(b1-4)GlcNAc(b1-6)]Man(a1-6)[Neu5Ac(a2-6)Gal(b1-4)GlcNAc(b1-2)Man(a1-3)][GlcNAc(b1-4)]Man(b1-4)GlcNAc(b1-4)GlcNAc
# Outline: as §1
# [12] = molecular target: Neu5Ac(a2-6)Gal(b1-4)GlcNAc(b1-3)Gal(b1-3)GlcNAc
# Outline: as §1
# [13] = molecular target: Neu5Ac(a2-6)Gal(b1-4)GlcNAc(b1-3)Gal(b1-4)GlcNAc
# Outline: as §1
# [14] = molecular target: Neu5Ac(a2-6)Gal(b1-4)GlcNAc(b1-3)Gal(b1-4)GlcNAc(b1-2)Man(a1-3)[Neu5Ac(a2-6)Gal(b1-4)GlcNAc(b1-3)Gal(b1-4)GlcNAc(b1-2)Man(a1-6)]GalNAc
# Outline: as §1
# [15] = molecular target: Neu5Ac(a2-6)Gal(b1-4)GlcNAc(b1-3)Gal(b1-4)GlcNAc(b1-3)Gal(b1-4)GlcNAc
# Outline: as §1
# [16] = molecular target: Neu5Ac(a2-6)Gal(b1-4)GlcNAc(b1-3)Gal(b1-4)GlcNAc(b1-3)Gal(b1-4)GlcNAc(b1-2)Man(a1-3)[Neu5Ac(a2-6)Gal(b1-4)GlcNAc(b1-3)Gal(b1-4)GlcNAc(b1-3)Gal(b1-4)GlcNAc(b1-2)Man(a1-6)]GalNAc
# Outline: as §1
# [17] = molecular target: Neu5Ac(a2-6)Gal(b1-4)GlcNAc(b1-3)Gal(b1-4)GlcNAc(b1-3)GalNAc
# Outline: as §1
# [18] = molecular target: Neu5Ac(a2-6)Gal(b1-4)GlcNAc(b1-3)Gal(b1-4)GlcNAc(b1-3)[Neu5Ac(a2-6)Gal(b1-4)GlcNAc(b1-3)Gal(b1-4)GlcNAc(b1-6)]GalNAc
# Outline: as §1
# [19] = molecular target: Neu5Ac(a2-6)Gal(b1-4)GlcNAc(b1-3)Gal(b1-4)GlcNAc(b1-6)[Gal(b1-3)]GalNAc
# Outline: as §1
# [20] = molecular target: Neu5Ac(a2-6)Gal(b1-4)GlcNAc(b1-3)Gal(b1-4)[Fuc(a1-3)]GlcNAc(b1-3)Gal(b1-4)[Fuc(a1-3)]GlcNAc
# Outline: as §1
# [21] = molecular target: Neu5Ac(a2-6)Gal(b1-4)GlcNAc(b1-3)GalNAc
# Outline: as §1
# [22] = molecular target: Neu5Ac(a2-6)Gal(b1-4)GlcNAc(b1-3)[Neu5Ac(a2-6)Gal(b1-4)GlcNAc(b1-6)]GalNAc
# Outline: as §1
# [23] = molecular target: Neu5Ac(a2-6)Gal(b1-4)GlcNAc(b1-6)GalNAc
# Outline: as §1
# [24] = molecular target: Neu5Ac(a2-6)Gal(b1-4)GlcNAc(b1-6)[Gal(b1-3)GlcNAc(b1-3)]Gal(b1-4)Glc
# Outline: as §1
# [25] = molecular target: Neu5Ac(a2-6)Gal(b1-4)GlcNAc(b1-6)[Gal(b1-3)]GalNAc
# Outline: as §1
# [26] = molecular target: Neu5Ac(a2-6)Gal(b1-4)GlcNAc6S
# Outline: as §1
# Neu5Ac(a2-6)GalNAc = molecular target: Neu5Ac(a2-6)GalNAc
# Outline: as §1
# [27] = molecular target: Neu5Ac(a2-6)GalNAc(b1-4)GlcNAc
# Outline: as §1
# [28] = molecular target: Neu5Ac(a2-6)GalNAc(b1-4)GlcNAc6S
# Outline: as §1
# [29] = molecular target: Neu5Ac(a2-6)GlcNAc(b1-4)GlcNAc
# Outline: as §1
binder,measurement,setting,value
B1,glycan array binding signal (z-score),[1],-0.119
same,glycan array binding signal (z-score),[2],0.077
same,glycan array binding signal (z-score),[3],-0.11
same,glycan array binding signal (z-score),[4],-0.156
same,glycan array binding signal (z-score),[5],-0.124
same,glycan array binding signal (z-score),[6],-0.041
same,glycan array binding signal (z-score),[7],-0.153
same,glycan array binding signal (z-score),[8],-0.157
same,glycan array binding signal (z-score),[9],-0.061
same,glycan array binding signal (z-score),[10],-0.101
same,glycan array binding signal (z-score),[11],-0.173
same,glycan array binding signal (z-score),[12],-0.117
same,glycan array binding signal (z-score),[13],-0.237
same,glycan array binding signal (z-score),[14],0.04
same,glycan array binding signal (z-score),[15],-0.192
same,glycan array binding signal (z-score),[16],0.007
same,glycan array binding signal (z-score),[17],-0.193
same,glycan array binding signal (z-score),[18],-0.127
same,glycan array binding signal (z-score),[19],-0.192
same,glycan array binding signal (z-score),[20],-0.134
same,glycan array binding signal (z-score),[21],1.07
same,glycan array binding signal (z-score),[22],-0.028
same,glycan array binding signal (z-score),[23],-0.231
same,glycan array binding signal (z-score),[24],-0.184
same,glycan array binding signal (z-score),[25],-0.061
same,glycan array binding signal (z-score),[26],0.713
same,glycan array binding signal (z-score),Neu5Ac(a2-6)GalNAc,1.71
same,glycan array binding signal (z-score),[27],-0.253
same,glycan array binding signal (z-score),[28],-0.076
same,glycan array binding signal (z-score),[29],-0.187
